Test results reported in the antibiotic and cytotoxicity screens of Wong et al. (2023).
Some of the results follow.

Key:
HSkMC = human skeletal muscle cells; assay: cytotoxicity call (relative viability < 0.9); conditions: 10 µM
HepG2 = assay: cytotoxicity call (relative viability < 0.9); conditions: 10 µM
S. aureus RN4220 = assay: growth inhibition call (relative growth <= 0.2); conditions: 50 µM

SMILES | cytotoxicity call (HSkMC) | cytotoxicity call (HepG2) | growth inhibition call (S. aureus RN4220)
C[C@@H]1CN([C@H](C)CO)C(=O)c2cccc(NC(=O)c3nc4ccccc4s3)c2O[C@H]1CN(C)C(=O)Nc1cccc2ccccc12 | inactive | inactive | inactive
C[C@@H]1CN([C@@H](C)CO)C(=O)c2cccc(NC(=O)c3cnccn3)c2O[C@@H]1CN(C)CC1CCCCC1 | inactive | inactive | inactive
CN1CCN(C(=O)C[C@H]2C[C@H]3c4cc(NS(=O)(=O)c5ccc(F)cc5)ccc4O[C@H]3[C@H](CO)O2)CC1 | inactive | inactive | inactive
C[C@@H]1CCCCO[C@H](CN(C)C(=O)Nc2ccc(F)cc2)[C@@H](C)CN([C@H](C)CO)C(=O)c2cc(NC(=O)Nc3cccc4ccccc34)ccc2O1 | inactive | inactive | inactive
C=CCC[C@@H](Cc1ccc(F)cc1)C(=O)OC[C@@H](NC(=O)[C@H](CC=C)CC(=O)N(CCO)Cc1ccccc1)c1ccccc1 | inactive | inactive | inactive
COCC(=O)N(C)C[C@@H]1Oc2cc(C#Cc3cccnc3)ccc2S(=O)(=O)N([C@@H](C)CO)C[C@H]1C | inactive | inactive | inactive
O=C1O[C@@H](c2ccccc2)[C@@H](c2ccccc2)N2[C@@H](c3ccc(O)cc3)[C@]3(C(=O)Nc4ccc(C#CC5(O)CCCCCC5)cc43)[C@@H](C(=O)N3CCN(c4ncccn4)CC3)[C@H]12 | inactive | inactive | inactive
COc1ccc2c3c([nH]c2c1)[C@@H](CO)N(C[C@]13CCN(CC1)S(=O)(=O)c1ccccc1)C(=O)c1cnccn1 | inactive | inactive | inactive
O=c1[nH]cc(F)c(=O)[nH]1 | inactive | active | inactive
C[C@@H]1CN([C@@H](C)CO)C(=O)c2cc(NC(=O)NC3CCCCC3)ccc2O[C@@H](C)CCCCO[C@@H]1CN(C)Cc1ccc2c(c1)OCO2 | inactive | inactive | inactive
CON=C(C(=O)NC1C(=O)N2C(C(=O)[O-])=C(COC(C)=O)CSC12)c1csc(N)n1.[Na+] (centres undefined) | inactive | inactive | active
Cc1ccc(S(=O)(=O)N[C@@H]2C=C[C@H](CC(=O)NCCN3CCCCC3)O[C@@H]2CO)cc1 | inactive | inactive | inactive
C[C@H](CO)N1C[C@H](C)[C@H](CN(C)CC2CCCCC2)Oc2ccc(NC(=O)Nc3ccc(F)cc3)cc2CC1=O | inactive | active | inactive
COc1ccc(NC(=O)Nc2ccc3c(c2)C(=O)N([C@@H](C)CO)C[C@@H](C)[C@H](CN(C)S(C)(=O)=O)O3)cc1 | inactive | inactive | inactive
C[C@H]1CN([C@@H](C)CO)C(=O)Cc2cc(NC(=O)CCC(F)(F)F)ccc2O[C@@H]1CN(C)C(=O)Nc1cccc2ccccc12 | inactive | inactive | inactive
COc1ccc(S(=O)(=O)Nc2ccc3c(c2)C(=O)N([C@H](C)CO)C[C@@H](C)[C@H](CN(C)Cc2ccc(Cl)c(Cl)c2)OCCCC[C@@H](C)O3)cc1 | inactive | active | inactive
C[C@H]1CN([C@@H](C)CO)C(=O)c2cc(C#Cc3cccc(F)c3)cnc2O[C@@H]1CN(C)Cc1ccccn1 | inactive | inactive | inactive
CN(C)CC#Cc1ccc([C@H]2[C@@H](CO)N3C(=O)CN(C(=O)CN(C)C)C[C@H]23)cc1 | inactive | inactive | inactive
CNC[C@H]1OCCCC[C@H](C)Oc2ccc(NS(=O)(=O)c3cn(C)cn3)cc2C(=O)N([C@H](C)CO)C[C@@H]1C | inactive | inactive | inactive
O=C(C[C@@H]1CC[C@H](NC(=O)C2CC2)[C@H](CO)O1)NCCCN1CCOCC1 | inactive | inactive | inactive
C[C@@H]1CN([C@@H](C)CO)C(=O)Cc2cc(N(C)C)ccc2O[C@@H]1CN(C)S(=O)(=O)c1ccc(F)cc1 | inactive | inactive | inactive
COc1ccc(S(=O)(=O)Nc2ccc3c(c2)C(=O)N([C@@H](C)CO)C[C@@H](C)[C@H](CN(C)C(=O)NC2CCCCC2)OCCCC[C@@H](C)O3)cc1 | inactive | inactive | inactive
COc1ccc(S(=O)(=O)N(C)C[C@@H]2Oc3ccc(NC(=O)Cc4ccccc4)cc3CC(=O)N([C@@H](C)CO)C[C@H]2C)cc1 | inactive | inactive | inactive
COCC(=O)N(C)C[C@H]1Oc2cc(C#Cc3cccnc3)ccc2S(=O)(=O)N([C@H](C)CO)C[C@@H]1C | inactive | inactive | inactive
COCCN1C(=O)C2=C(C1=O)[C@H]1N(C)c3ccccc3[C@@]13C[C@@H](CO)N(C(C)=O)C3=N2 | inactive | inactive | inactive
CCc1nc2ccc(C(=O)NC3CCN(Cc4ccccc4)CC3)cn2c1N(C)Cc1cc2ccccc2s1 | active | active | inactive
C[C@H](CO)N1C[C@H](C)[C@@H](CN(C)C(=O)NC2CCCCC2)Oc2ccc(NS(=O)(=O)c3cn(C)cn3)cc2CC1=O | inactive | inactive | inactive

SMILES | cytotoxicity call (HSkMC) | cytotoxicity call (HepG2) | growth inhibition call (S. aureus RN4220)
C[C@H]1CN([C@@H](C)CO)C(=O)c2cccc(NC(=O)Nc3ccccc3)c2O[C@H]1CN(C)C(=O)Nc1cccc2ccccc12 | inactive | inactive | inactive
CC(C)NC(=O)Nc1ccc2c(c1)C(=O)N([C@H](C)CO)C[C@H](C)[C@@H](CN(C)C(=O)C1CCCCC1)OCCCC[C@@H](C)O2 | inactive | inactive | inactive
C[C@H]1CN([C@@H](C)CO)C(=O)Cc2cc(NC(=O)Nc3ccc(C#N)cc3)ccc2O[C@H]1CN(C)S(=O)(=O)c1ccc(Oc2ccccc2)cc1 | inactive | inactive | inactive
C[C@@H]1CN([C@@H](C)CO)C(=O)c2cc(NC(=O)c3ccccc3)ccc2O[C@@H](C)CCCCO[C@@H]1CN(C)S(=O)(=O)c1cccs1 | inactive | inactive | inactive
COc1cccc(S(=O)(=O)Nc2ccc3c(c2)[C@@H]2C[C@H](CC(=O)NCc4ccccc4F)O[C@H](CO)[C@@H]2O3)c1 | inactive | inactive | inactive
C[C@H]1CN([C@@H](C)CO)C(=O)c2cccc(NC(=O)c3nc4ccccc4s3)c2O[C@H]1CN(C)C(=O)Nc1ccc(C(F)(F)F)cc1 | inactive | active | inactive
C[C@@H]1CN([C@@H](C)CO)C(=O)CCCn2cc(nn2)CO[C@H]1CN(C)C(=O)Nc1ccccc1C(F)(F)F | inactive | inactive | inactive
NCC[C@H]1CC[C@@H](NC(=O)C2CCC2)[C@@H](CO)O1 | inactive | inactive | inactive
CC(=O)c1c(C)nn(CC(=O)O)c1C | inactive | inactive | inactive
C[C@@H]1CCCCO[C@@H](CN(C)S(=O)(=O)c2cn(C)cn2)[C@@H](C)CN([C@H](C)CO)C(=O)c2cc(NS(=O)(=O)c3cn(C)cn3)ccc2O1 | inactive | inactive | inactive
Cc1ccc(S(=O)(=O)Nc2ccc3c(c2)C(=O)N([C@H](C)CO)C[C@H](C)[C@@H](CN(C)C(=O)Nc2ccc(C(F)(F)F)cc2)O3)cc1 | inactive | inactive | inactive
C[C@H](CO)N1C[C@H](C)[C@H](CN(C)C(=O)Nc2ccc(C(F)(F)F)cc2)Oc2ccc(NC(=O)Nc3ccccc3)cc2CC1=O | inactive | inactive | inactive
Cc1nc2n(c(=O)c1CCN1CCC(c3noc4cc(F)ccc34)CC1)CCCC2O (centres undefined) | inactive | inactive | inactive
O=C(O)CNC(=O)C1CCC1 | inactive | inactive | inactive
COc1cccc(-c2cn(CC[C@@H]3CC[C@@H](NC(=O)CN(C)C)[C@@H](CO)O3)nn2)c1 | inactive | inactive | inactive
COc1ccc([C@H]([C@H](Cc2ccccc2)OC(C)=O)N(C[C@H](/C=C/c2ccccc2)NC(=O)C(Cl)(Cl)Cl)[C@@H](Cc2ccccc2)C(OC)OC)cc1 | inactive | inactive | inactive
CC(=O)O[C@H]1CC(C)(C)C[C@H]2[C@]13CO[C@@]21CC[C@@H]2[C@@]4(C)CC[C@H](O[C@@H]5O[C@H](C(=O)O)[C@@H](O)[C@H](O[C@@H]6O[C@H](CO)[C@H](O)[C@H](O)[C@H]6O[C@@H]6O[C@@H](C)[C@H](O)[C@@H](O)[C@H]6O)[C@H]5O[C@@H]5O[C@H](CO)[C@@H](O)[C@H](O)[C@H]5O)C(C)(C)[C@@H]4CC[C@@]2(C)[C@]1(C)C[C@H]3O | inactive | active | inactive
COCC(=O)Nc1ccc2c(c1)C(=O)N(C)[C@H]1CC[C@@H](CC(=O)NCc3ccccc3Cl)O[C@@H]1CO2 | inactive | inactive | inactive
Cc1noc(C)c1NC(=O)Nc1ccc2c(c1)C(=O)N([C@H](C)CO)C[C@@H](C)[C@@H](CN(C)C(=O)Nc1c(C)noc1C)OCCCC[C@@H](C)O2 | inactive | inactive | inactive
CN(C)CCCNC(=O)C[C@@H]1C=C[C@H](NC(=O)Cc2cccnc2)[C@@H](CO)O1 | inactive | inactive | inactive
C[C@H]1CCCCO[C@@H](CN(C)CC2CCCCC2)[C@@H](C)CN([C@@H](C)CO)C(=O)c2cc(NS(=O)(=O)c3ccc(F)cc3)ccc2O1 | inactive | inactive | inactive
CO[C@H]1CN(C)C(=O)c2cc(NS(C)(=O)=O)ccc2OC[C@H](C)N(C(=O)CN(C)C)C[C@@H]1C | inactive | inactive | inactive
C[C@H]1CN([C@@H](C)CO)C(=O)c2cccc(NS(C)(=O)=O)c2O[C@H]1CN(C)S(C)(=O)=O | inactive | inactive | inactive
C[C@H]1CN([C@@H](C)CO)C(=O)Cc2cc(NS(=O)(=O)c3cccs3)ccc2O[C@@H]1CN(C)C(=O)Nc1cccc2ccccc12 | inactive | inactive | inactive
CC(C)c1cc(=O)nc[nH]1 | inactive | inactive | inactive
CC(=O)O[C@H]1CC[C@]2(C)[C@H]3CC[C@]4(C)C(=CC(=O)O[C@H]4c4ccoc4)[C@]3(C)[C@H](OC(C)=O)C[C@H]2C1(C)C | inactive | inactive | inactive
